Measurements from PubChem BioAssay AID504339 (National Center for Advancing Translational Sciences (NCATS), 2011).
Screen size: about 390,000 compounds; about 17,000 (4.4%) were called active. The inconclusive results got no clear call from the source; some entries with a clear call stand among them for comparison. The call rests on the fitted dose curve; in most records, active means well fitted inhibition curve with a large enough effect; inconclusive means small, poorly fitted or top-dose-only effect; inactive means no such curve, though single readings can be large or run the other way. Potencies beside an inconclusive call are fits to weak or partial responses and may not hold up.

target: Lysine-specific demethylase 4A (Homo sapiens) (UniProt O75164); assay: qHTS Assay for Inhibitors of JMJD2A-Tudor Domain; settings: AlphaScreen JMJD2A-Tudor / H3K4me3 peptide binding; activity change, negative = inhibition: at 114 µM (top of the series); further: nearly all actives have a fitted effect of over 50% in size
UniProt O75164, sequence (O75164 whole entry, looked up, the tested form may be a part): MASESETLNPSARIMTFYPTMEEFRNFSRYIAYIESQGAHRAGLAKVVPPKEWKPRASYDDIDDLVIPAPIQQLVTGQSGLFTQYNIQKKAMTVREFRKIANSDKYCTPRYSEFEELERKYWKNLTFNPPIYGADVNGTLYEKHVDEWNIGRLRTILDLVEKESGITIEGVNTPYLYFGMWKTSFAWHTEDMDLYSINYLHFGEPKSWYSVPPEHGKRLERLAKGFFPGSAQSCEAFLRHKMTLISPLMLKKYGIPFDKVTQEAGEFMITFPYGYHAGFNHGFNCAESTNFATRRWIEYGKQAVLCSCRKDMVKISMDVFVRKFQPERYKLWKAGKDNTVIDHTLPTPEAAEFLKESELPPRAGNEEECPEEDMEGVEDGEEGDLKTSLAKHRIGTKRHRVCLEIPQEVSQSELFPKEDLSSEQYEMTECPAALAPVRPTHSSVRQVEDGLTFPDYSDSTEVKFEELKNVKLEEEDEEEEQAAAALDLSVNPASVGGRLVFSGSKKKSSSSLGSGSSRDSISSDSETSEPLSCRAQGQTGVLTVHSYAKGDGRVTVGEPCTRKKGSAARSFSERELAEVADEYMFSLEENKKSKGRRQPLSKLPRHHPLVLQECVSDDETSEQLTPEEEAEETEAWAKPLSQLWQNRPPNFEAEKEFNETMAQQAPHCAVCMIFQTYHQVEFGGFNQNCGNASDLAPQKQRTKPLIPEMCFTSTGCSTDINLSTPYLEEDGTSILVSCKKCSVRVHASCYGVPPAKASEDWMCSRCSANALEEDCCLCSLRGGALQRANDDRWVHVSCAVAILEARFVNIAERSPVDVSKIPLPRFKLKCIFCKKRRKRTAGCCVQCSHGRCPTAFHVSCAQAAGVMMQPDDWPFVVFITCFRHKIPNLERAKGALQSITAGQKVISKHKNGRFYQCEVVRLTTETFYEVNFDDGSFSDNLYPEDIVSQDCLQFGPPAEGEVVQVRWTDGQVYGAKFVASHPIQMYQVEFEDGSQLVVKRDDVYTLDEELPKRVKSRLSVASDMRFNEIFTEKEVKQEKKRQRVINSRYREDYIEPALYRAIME
On the % scale 0 is the no-effect control and ±100 the full control effect; potency means the concentration at half of the fitted maximal effect; tags describe the fitted curve by direction and shape.

Structure (SMILES)	Potency	activity change, negative = inhibition
c1ccc2c(OCCCCN3CCOCC3)cccc2c1	active: 3.55 µM	
CC(Oc1ccc2ccccc2c1)C(=O)NNC(=S)NC(=O)c1ccco1 (configuration not stated)	inconclusive: 44.7 µM [inhibitor, partial curve]	
CC(C)OCCCn1c(=N)c(C(N)=S)cc2c(=O)n3ccccc3nc21	inconclusive: 63.1 µM [inhibitor, partial curve, poor fit]	
O=C(Nc1ccccc1N1CCN(C(=O)c2ccc(Cl)cc2)CC1)c1ccc([N+](=O)[O-])o1	inconclusive: 56.2 µM [inhibitor, partial curve, poor fit]	
Cc1cc(C(=O)CSc2nnc(-c3cccs3)n2Cc2ccccc2)c(C)n1C	inconclusive: 56.2 µM [inhibitor, partial curve]	
COc1ccc2cc(C(c3nnnn3CCc3ccccc3)N3CCCC(C)C3)c(=O)[nH]c2c1 (configuration not stated)	inconclusive: 89.1 µM [inhibitor, single point]	
O=C(NC1(O)C(=O)c2ccccc2C1=O)c1ccccc1		inactive: -5.41%
COC(=O)c1nc(NC(=O)c2ccc(F)cc2)n[nH]1	inconclusive: 35.5 µM [inhibitor, partial curve]	
Cc1c(N2CCCC2)cc2c(c1N)C(C)(C)CC2(C)C	inconclusive: 50.1 µM [inhibitor, partial curve]	
CN(C)c1ccc(CNn2cnnc2SCc2ccccc2F)cc1	inconclusive: 63.1 µM [inhibitor, partial curve, poor fit]	
COc1ccc(N2CCN(C(=O)c3ccc(N(C)S(=O)(=O)c4ccc(C)cc4)cc3)CC2)cc1	inconclusive: 25.1 µM [inhibitor, full curve]	
CCOc1cc(-c2sc(Nc3ccccc3)n[n+]2-c2ccc(F)cc2)ccc1OC	inconclusive: 89.1 µM [inhibitor, partial curve]	
C[C@]12c3[nH]c4cc(-c5ccco5)ccc4c3CCN1C(=O)[C@@H](CC(=O)NCCN1CCOCC1)C[C@@H]2C(=O)N1CCCCC1	inconclusive: 50.1 µM [inhibitor, partial curve]	
Cc1ccc(CN2C(=O)N(c3ccc(C)c(Cl)c3)S(=O)(=O)c3ccccc32)cc1	inconclusive: 100 µM [inhibitor, single point]	
CN(C)c1ccc(C(=O)N2CCN(C(=O)C3CCCO3)CC2)cc1 (configuration not stated)		inactive: -4.36%
COc1ccc2oc(=N)c(C(=O)Nc3ccc(Br)cc3)cc2c1	inconclusive: 4.47 µM [inhibitor, single point]	
COc1cccc(N2CCN(c3ccc4nnc(CCC(=O)Nc5ccc(F)cc5F)n4n3)CC2)c1	inconclusive: 100 µM [inhibitor, single point]	
O=C(N/N=C/c1cc([N+](=O)[O-])ccc1O)C(O)(c1ccccc1)c1ccccc1	active: 79.4 µM	
COc1ccc(-c2[nH]c(-c3ccc(C(=O)O)cc3)nc2-c2ccccc2)cc1	inconclusive: 56.2 µM [inhibitor, partial curve]	
COC(=O)C1=C(C)Nc2c(c(=O)n(C)c(=O)n2C)C1c1ccc(Cl)cc1 (configuration not stated)	inconclusive: 79.4 µM [inhibitor, single point]	
CCOc1ccc(/C=C2\SC(=S)N(CCC(=O)Nc3ccc(C(=O)O)cc3)C2=O)cc1	active: 25.1 µM	

Structure (SMILES)	Potency	activity change, negative = inhibition
CCN(CC)CCn1c(O)c(N=O)c2ccccc21		inactive: -11.9%
O=C1/C(=C/c2cccnc2)Oc2cc(OS(=O)(=O)c3ccccc3)ccc21	inconclusive: 25.1 µM [inhibitor, full curve]	
CCOC(=O)c1c(NC(=O)CN2C(=O)NC(C)(c3ccccc3)C2=O)sc(C)c1C (configuration not stated)	inconclusive: 79.4 µM [inhibitor, partial curve]	
CCN(C(=O)COC(=O)c1nccnc1N)c1cccc2ccccc12	inconclusive: 20 µM [inhibitor, partial curve, poor fit]	
COc1cc2c(cc1OC)CN(c1nc(CN3CCCC3)nc3sc(C)c(C)c13)CC2	inconclusive: 56.2 µM [inhibitor, partial curve]	
COc1ccccc1N1CCN(C(=O)c2oc3ccccc3c2N)CC1	inconclusive: 35.5 µM [inhibitor, partial curve]	
C(#Cc1ccccc1)C[N+]1(CC#Cc2ccccc2)CCCCC1	active: 44.7 µM	
COc1ccc(S(=O)(=O)Nc2cc(SCC(=O)O)c(O)c3ccccc23)cc1	active: 20 µM	
O=C(N/N=C/c1ccc(Cl)s1)C(O)c1ccccc1 (configuration not stated)		inactive: -12.8%
CCc1ccccc1N(CC(=O)NCc1ccco1)C(=O)c1snc(C(N)=O)c1N	inconclusive: 89.1 µM [inhibitor, partial curve, poor fit]	
CCN(CC)S(=O)(=O)c1cccc(N=Nc2c(O)c3ccccc3oc2=O)c1	inconclusive: 35.5 µM [inhibitor, partial curve]	
CCN(CC)c1ccc(C2C(C(N)=O)=C(C)Nc3nc(SCc4ccccc4)nn32)cc1 (configuration not stated)		inactive: -2.39%
CCOC(=O)C1CCN(Cc2cccc(Oc3ccccc3)c2)CC1	active: 22.4 µM	
c1ccc(-c2sc3ccccc3c2-c2ccc(OCCN3CCOCC3)cc2)cc1	inconclusive: 50.1 µM [inhibitor, partial curve]	
Cc1ccnc(NC(c2cc(C)ccc2O)c2ccc3cccnc3c2O)c1 (configuration not stated)	active: 28.2 µM	
COc1ccc(-n2c(COc3ccccc3)n[nH]c2=S)cc1	active: 50.1 µM	
Cc1ccc(C(=O)c2cc(C)sc2NC(=O)CN2CCN(C(=O)c3ccco3)CC2)cc1	inconclusive: 14.1 µM [inhibitor, partial curve]	
COc1cccc(CNC(=O)C2CCCN(S(=O)(=O)c3cn(C)cn3)C2)c1 (configuration not stated)		inactive: 6.62%
COc1ccccc1N1CCN(Cc2cc(COC(C)C)c3cccnc3c2O)CC1	active: 22.4 µM	
CC(=O)NCCC(=O)Nc1cc(S(=O)(=O)N2CCOCC2)ccc1Oc1ccccc1		inactive: 3.09%
O=C(O)c1cc(O)c2c(c1)[C@@H]([C@H]1c3cc(C(=O)O)cc(O)c3C(=O)c3c(O[C@@H]4O[C@H](CO)[C@@H](O)[C@H](O)[C@H]4O)cccc31)c1cccc(OC3O[C@H](CO)[C@@H](O)[C@H](O)[C@H]3O)c1C2=O (some centres not stated)	active: 0.316 µM	
